Test results: the supplement of paper PMC8728848
The other results are listed elsewhere or left out.

Tests used:
Test in all cases: glycan array binding signal (z-score within array); higher = stronger binding
Conditions in all cases: glycan notation: IUPAC condensed, linker removed
[1] = biological target: Fuc(a1-2)[Gal(a1-3)]Gal(b1-4)GlcNAc(b1-2)Man
Outline: (§1)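 Glycan array data were curated from 3228 arrays in the Consortium for Functional Glycomics database and kept only where the protein sequence was available. Glycan names were converted to IUPAC-condensed notation, and columns mapping to the same glycan were averaged. The binding signal is a within-array Z-score, averaged across arrays of the same protein sequence at different concentrations or buffers and across linkers. Negative Z-scores can be read as non-binding.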

[2] = biological target: Fuc(a1-2)[Gal(a1-3)]Gal(b1-4)GlcNAc(b1-2)Man(a1-3)[Fuc(a1-2)[Gal(a1-3)]Gal(b1-4)GlcNAc(b1-2)Man(a1-6)]Man(b1-4)GlcNAc(b1-4)GlcNAc
Outline: as §1

[3] = biological target: Fuc(a1-2)[Gal(a1-3)]Gal(b1-4)GlcNAc(b1-2)Man(a1-3)[Fuc(a1-2)[Gal(a1-3)]Gal(b1-4)GlcNAc(b1-2)Man(a1-6)]Man(b1-4)GlcNAc(b1-4)[Fuc(a1-6)]GlcNAc
Outline: as §1

[4] = biological target: Fuc(a1-2)[Gal(a1-3)]Gal(b1-4)GlcNAc(b1-3)GalNAc
Outline: as §1

[5] = biological target: Fuc(a1-2)[Gal(a1-3)]Gal(b1-4)GlcNAc(b1-6)GalNAc
Outline: as §1

[6] = biological target: Fuc(a1-2)[Gal(a1-3)]Gal(b1-4)[Fuc(a1-3)]Glc
Outline: as §1

[7] = biological target: Fuc(a1-2)[Gal(a1-3)]Gal(b1-4)[Fuc(a1-3)]GlcNAc
Outline: as §1

[8] = biological target: Fuc(a1-2)[Gal(a1-3)]Gal(b1-4)[Fuc(a1-3)]GlcNAc(b1-3)GalNAc
Outline: as §1

[9] = biological target: Fuc(a1-2)[Gal(a1-4)]Gal(b1-4)GlcNAc
Outline: as §1

[10] = biological target: Fuc(a1-2)[GalNAc(a1-3)]Gal
Outline: as §1

[11] = biological target: Fuc(a1-2)[GalNAc(a1-3)]Gal(b1-3)GalNAc(a1-3)[Fuc(a1-2)]Gal(b1-4)GlcNAc
Outline: as §1

[12] = biological target: Fuc(a1-2)[GalNAc(a1-3)]Gal(b1-3)GalNAc(b1-3)Gal(a1-4)Gal(b1-4)Glc
Outline: as §1

[13] = biological target: Fuc(a1-2)[GalNAc(a1-3)]Gal(b1-3)GlcNAc
Outline: as §1

[14] = biological target: Fuc(a1-2)[GalNAc(a1-3)]Gal(b1-3)GlcNAc(b1-2)Man(a1-3)[Fuc(a1-2)[GalNAc(a1-3)]Gal(b1-3)GlcNAc(b1-2)Man(a1-6)]Man(b1-4)GlcNAc(b1-4)GlcNAc
Outline: as §1

[15] = biological target: Fuc(a1-2)[GalNAc(a1-3)]Gal(b1-3)GlcNAc(b1-2)Man(a1-3)[Fuc(a1-2)[GalNAc(a1-3)]Gal(b1-3)GlcNAc(b1-2)Man(a1-6)]Man(b1-4)GlcNAc(b1-4)[Fuc(a1-6)]GlcNAc
Outline: as §1

[16] = biological target: Fuc(a1-2)[GalNAc(a1-3)]Gal(b1-3)GlcNAc(b1-3)GalNAc
Outline: as §1

[17] = biological target: Fuc(a1-2)[GalNAc(a1-3)]Gal(b1-3)GlcNAc(b1-6)GalNAc
Outline: as §1

[18] = biological target: Fuc(a1-2)[GalNAc(a1-3)]Gal(b1-4)Glc
Outline: as §1

[19] = biological target: Fuc(a1-2)[GalNAc(a1-3)]Gal(b1-4)GlcNAc
Outline: as §1

[20] = biological target: Fuc(a1-2)[GalNAc(a1-3)]Gal(b1-4)GlcNAc(b1-2)Man
Outline: as §1

[21] = biological target: Fuc(a1-2)[GalNAc(a1-3)]Gal(b1-4)GlcNAc(b1-2)Man(a1-3)[Fuc(a1-2)[GalNAc(a1-3)]Gal(b1-4)GlcNAc(b1-2)Man(a1-6)]Man(b1-4)GlcNAc(b1-4)GlcNAc
Outline: as §1

[22] = biological target: Fuc(a1-2)[GalNAc(a1-3)]Gal(b1-4)GlcNAc(b1-2)Man(a1-3)[Fuc(a1-2)[GalNAc(a1-3)]Gal(b1-4)GlcNAc(b1-2)Man(a1-6)]Man(b1-4)GlcNAc(b1-4)[Fuc(a1-6)]GlcNAc
Outline: as §1

[23] = biological target: Fuc(a1-2)[GalNAc(a1-3)]Gal(b1-4)GlcNAc(b1-3)Gal(b1-4)GlcNAc
Outline: as §1

[24] = biological target: Fuc(a1-2)[GalNAc(a1-3)]Gal(b1-4)GlcNAc(b1-3)Gal(b1-4)GlcNAc(b1-3)Gal(b1-4)GlcNAc
Outline: as §1

[25] = biological target: Fuc(a1-2)[GalNAc(a1-3)]Gal(b1-4)GlcNAc(b1-3)GalNAc
Outline: as §1

[26] = biological target: Fuc(a1-2)[GalNAc(a1-3)]Gal(b1-4)GlcNAc(b1-3)[Fuc(a1-2)[GalNAc(a1-3)]Gal(b1-4)GlcNAc(b1-6)]GalNAc
Outline: as §1

[27] = biological target: Fuc(a1-2)[GalNAc(a1-3)]Gal(b1-4)GlcNAc(b1-6)GalNAc
Outline: as §1

[28] = biological target: Fuc(a1-2)[GalNAc(a1-3)]Gal(b1-4)[Fuc(a1-3)]GlcNAc
Outline: as §1

[29] = biological target: Fuc(a1-2)[GalNAc(a1-3)]Gal(b1-4)[Fuc(a1-3)]GlcNAc(b1-3)GalNAc
Outline: as §1

[30] = biological target: Fuc(a1-2)[GalNAc(a1-4)]Gal(b1-4)GlcNAc
Outline: as §1

[31] = biological target: Fuc(a1-2)[GalNAc(b1-3)]Gal
Outline: as §1

Fuc(a1-3)GlcNAc = biological target: Fuc(a1-3)GlcNAc
Outline: as §1

[32] = biological target: Fuc(a1-3)[Gal(b1-4)]Glc6S
Outline: as §1

[33] = biological target: Fuc(a1-3)[Gal(b1-4)]GlcNAc
Outline: as §1

[34] = biological target: Fuc(a1-3)[Gal(b1-4)]GlcNAc(b1-2)Man
Outline: as §1

[35] = biological target: Fuc(a1-3)[Gal(b1-4)]GlcNAc(b1-2)Man(a1-3)[Fuc(a1-3)[Gal(b1-4)]GlcNAc(b1-2)Man(a1-6)]Man(b1-4)GlcNAc(b1-4)GlcNAc
Outline: as §1

[36] = biological target: Fuc(a1-3)[Gal(b1-4)]GlcNAc(b1-2)Man(a1-3)[Fuc(a1-3)[Gal(b1-4)]GlcNAc(b1-2)Man(a1-6)]Man(b1-4)GlcNAc(b1-4)[Fuc(a1-6)]GlcNAc
Outline: as §1

[37] = biological target: Fuc(a1-3)[Gal(b1-4)]GlcNAc(b1-3)Gal(b1-3)[Fuc(a1-4)]GlcNAc
Outline: as §1

[38] = biological target: Fuc(a1-3)[Gal(b1-4)]GlcNAc(b1-3)Gal(b1-4)[Fuc(a1-3)]GlcNAc
Outline: as §1

[39] = biological target: Fuc(a1-3)[Gal(b1-4)]GlcNAc(b1-3)Gal(b1-4)[Fuc(a1-3)]GlcNAc(b1-3)Gal(b1-4)[Fuc(a1-3)]GlcNAc
Outline: as §1

[40] = biological target: Fuc(a1-3)[Gal(b1-4)]GlcNAc(b1-3)GalNAc
Outline: as §1

[41] = biological target: Fuc(a1-3)[Gal(b1-4)]GlcNAc(b1-4)Gal(b1-4)[Fuc(a1-3)]GlcNAc
Outline: as §1

[42] = biological target: Fuc(a1-3)[Gal(b1-4)]GlcNAc(b1-4)Gal(b1-4)[Fuc(a1-3)]GlcNAc(b1-4)Gal(b1-4)[Fuc(a1-3)]GlcNAc
Outline: as §1

[43] = biological target: Fuc(a1-3)[Gal(b1-4)]GlcNAc(b1-6)GalNAc
Outline: as §1

[44] = biological target: Fuc(a1-3)[Gal(b1-4)]GlcNAc(b1-6)[Gal(b1-3)GlcNAc(b1-3)]Gal(b1-4)Glc
Outline: as §1

B1: ECA (Erythrina cristagalli), P83410 (protein)
chain: VETISFSFSEFEPGNDNLTLQGAALITQSGVLQLTKINQNGMPAWDSTGRTLYTKPVHMWDSTTGTVASFETRFSFSIEQPYTRPLPADGLVFFMGPTKSKPAQGYGYLGVFNNSKQDNSYQTLAVEFDTFSNPWDPPQVPHIGIDVNSIRSIKTQPFQLDNGQVANVVIKYDAPSKILHVVLVYPSSGAIYTIAEIVDVKQVLPDWVDVGLSGATGAQRDAAETHDVYSWSFQASLPE
glycan array binding signal (z-score) [1]: -0.485
glycan array binding signal (z-score) [2]: -0.141
glycan array binding signal (z-score) [3]: -0.154
glycan array binding signal (z-score) [4]: -0.461
glycan array binding signal (z-score) [5]: -0.455
glycan array binding signal (z-score) [6]: -0.408
glycan array binding signal (z-score) [7]: -0.014
glycan array binding signal (z-score) [8]: -0.399
glycan array binding signal (z-score) [9]: -0.203
glycan array binding signal (z-score) [10]: -0.429
glycan array binding signal (z-score) [11]: -0.081
glycan array binding signal (z-score) [12]: -0.337
glycan array binding signal (z-score) [13]: -0.351
glycan array binding signal (z-score) [14]: -0.416
glycan array binding signal (z-score) [15]: -0.087
glycan array binding signal (z-score) [16]: -0.329
glycan array binding signal (z-score) [17]: -0.412
glycan array binding signal (z-score) [18]: -0.342
glycan array binding signal (z-score) [19]: -0.234
glycan array binding signal (z-score) [20]: -0.085
glycan array binding signal (z-score) [21]: -0.21
glycan array binding signal (z-score) [22]: 0.097
glycan array binding signal (z-score) [23]: -0.266
glycan array binding signal (z-score) [24]: 0.958
glycan array binding signal (z-score) [25]: -0.051
glycan array binding signal (z-score) [26]: -0.238
glycan array binding signal (z-score) [27]: -0.336
glycan array binding signal (z-score) [28]: -0.066
glycan array binding signal (z-score) [29]: -0.227
glycan array binding signal (z-score) [30]: -0.267
glycan array binding signal (z-score) [31]: -0.272
glycan array binding signal (z-score) (Fuc(a1-3)GlcNAc): -0.33
glycan array binding signal (z-score) [32]: -0.107
glycan array binding signal (z-score) [33]: -0.209
glycan array binding signal (z-score) [34]: -0.317
glycan array binding signal (z-score) [35]: -0.223
glycan array binding signal (z-score) [36]: -0.103
glycan array binding signal (z-score) [37]: 0.128
glycan array binding signal (z-score) [38]: 0.227
glycan array binding signal (z-score) [39]: -0.441
glycan array binding signal (z-score) [40]: -0.048
glycan array binding signal (z-score) [41]: -0.108
glycan array binding signal (z-score) [42]: -0.249
glycan array binding signal (z-score) [43]: 0.269
glycan array binding signal (z-score) [44]: -0.544
